# Test results as given in the BET-seq Pho4 binding data (Le et al. 2018).
# The other results are listed elsewhere or left out. Values were computed here from the reads of four pooled replicates and scatter widely.
# Molecular target: T1, Pho4 (S. cerevisiae) (UniProt P07270)
# T1 sequence: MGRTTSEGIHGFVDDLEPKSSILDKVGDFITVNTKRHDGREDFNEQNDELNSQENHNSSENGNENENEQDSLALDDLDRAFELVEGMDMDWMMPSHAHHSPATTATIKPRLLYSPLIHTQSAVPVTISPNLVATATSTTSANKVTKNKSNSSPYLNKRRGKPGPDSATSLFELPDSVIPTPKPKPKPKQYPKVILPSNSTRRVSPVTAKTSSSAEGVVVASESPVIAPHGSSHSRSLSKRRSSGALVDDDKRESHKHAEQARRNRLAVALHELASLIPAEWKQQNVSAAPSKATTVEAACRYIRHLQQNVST
# Assay: relative binding free energy (BET-seq); higher = weaker binding
# Conditions: reference: library average
row,Sequence,relative binding free energy [kcal/mol]
1,GGAGACACGTGGACGG,0.11
2,TAAGGCACGTGTATAG,-0.18
3,ATTTTCACGTGATTGC,0.37
4,TCTGTCACGTGATGAT,0.2
5,AAGTTCACGTGAGCGT,0.33
6,TAATGCACGTGTCGAG,0.11
7,GATGGCACGTGAAAAT,0.34
8,TGTGACACGTGATGTC,0.17
9,ACAGGCACGTGTATGT,-0.14
10,GTGGACACGTGCAGTG,0.06
11,ACGGTCACGTGGTAAT,0.18
12,AAGGACACGTGAGCGG,0.13
13,GTGTCCACGTGATTGT,0.06
14,ATTGCCACGTGGTCTG,-0.2
15,TAGGGCACGTGTTAGC,-0.05
16,TGGTTCACGTGTTTCG,0.28
17,GGGTGCACGTGGTAGC,-0.11
18,TCAGGCACGTGGGGTT,-0.25
19,AGTGCCACGTGGAAAG,0.21
20,TGGAACACGTGTGGGT,0.13
21,GGGACCACGTGGTGCG,-0.17
22,GGAAACACGTGGTATG,-0.11
23,GCTTTCACGTGCGAGG,0.4
24,TTTTCCACGTGGTAAT,0.04
25,AGGTGCACGTGGATCG,-0.05

row,Sequence,relative binding free energy [kcal/mol]
1,GGGGGCACGTGTGGAC,-0.14
2,TTTAGCACGTGAGTTT,0.21
3,TGCACCACGTGTGGGG,-0.17
4,GAGGTCACGTGTAATA,0.24
5,TGGGCCACGTGGGGTG,-0.23
6,TGACACACGTGATGTG,0.12
7,TAAATCACGTGGGTAG,-0.03
8,AGGTGCACGTGGGAAA,-0.09
9,TGTGTCACGTGCGCTG,-0.02
10,AGCAGCACGTGTTGTA,0
11,TTCGGCACGTGACGGG,0.09
12,GAATGCACGTGTTATA,0.04
13,GAGCTCACGTGTCGGT,0.32
14,GGAAGCACGTGAGGAG,0.2
15,GGGAACACGTGGGGGA,-0.04
16,GGTGCCACGTGAGATT,0.31
17,TTGTTCACGTGGTGCG,0.22
18,AGTGACACGTGTCCGG,0.01
19,TCAGGCACGTGCTTGG,-0.23
20,AGTAGCACGTGGTGAG,-0.14
21,TGTTACACGTGCGGTG,0.09
22,TGTCTCACGTGGTTGC,0.2
23,TGTAGCACGTGTGTAC,0.04
24,TATTTCACGTGTGCAA,0.28
25,TCTTACACGTGTTATT,-0.01

row,Sequence,relative binding free energy [kcal/mol]
1,GTGTGCACGTGGTTGC,-0.04
2,TATGCCACGTGATGTT,-0.1
3,GTGGTCACGTGCGGAG,0.1
4,TTGGGCACGTGAGTTG,0.26
5,AGTTGCACGTGCGGTC,-0.02
6,GCTAGCACGTGGTGTG,-0.12
7,AGGTACACGTGTACTG,-0.05
8,ATTTTCACGTGTTCTG,0.23
9,GTTCGCACGTGTTGTC,0.1
10,CTGTACACGTGTTGTT,0.1
11,GAGGGCACGTGGAATT,0.12
12,ATTTACACGTGTGTGC,-0.03
13,CGTTGCACGTGGTAGA,-0.18
14,GATATCACGTGTTTAG,0.15
15,CAGAGCACGTGTGGAG,0.06
16,TGATTCACGTGTAGGA,0.28
17,CTGCTCACGTGTGGGT,0.11
18,TGAGCCACGTGTTTTA,-0.01
19,AAGCGCACGTGGGTGG,-0.33
20,GGTCTCACGTGTACTT,0.35
21,ATGGGCACGTGTGCGC,-0.1
22,GGCGGCACGTGTGCAT,0.12
23,ATGGTCACGTGAGGTC,0.3
24,ATATTCACGTGTCGTG,0.3
25,ACTGACACGTGGGGGA,0

row,Sequence,relative binding free energy [kcal/mol]
1,TTCTTCACGTGTCTGG,0.22
2,GTGTGCACGTGGCTGC,0
3,CTTTGCACGTGAAATG,0.14
4,TCTGTCACGTGGGGTG,0.02
5,TGTGGCACGTGGCTTA,-0.12
6,TTGTACACGTGGTCGG,-0.14
7,TAGTACACGTGATGGT,0.15
8,TGTCTCACGTGCTCGG,0.31
9,CATTTCACGTGTCTGG,0.35
10,AATAGCACGTGAGAGG,0.13
11,TCGTGCACGTGGTGTA,-0.19
12,TTATTCACGTGTGGGG,0.21
13,TGCGTCACGTGAGTGG,0.31
14,GGTTCCACGTGTGAGT,0.15
15,TATGTCACGTGGTGGG,0.06
16,CGCTGCACGTGTGGGT,-0.01
17,TTGGACACGTGAGGGG,0.28
18,CAATGCACGTGTAGTG,0.19
19,GATTACACGTGGTAAG,0.08
20,AAAATCACGTGAGGTG,0.3
21,AGTCGCACGTGTAGGA,-0.03
22,CGTTTCACGTGTTTTC,0.3
23,ATGATCACGTGTTGTC,0.16
24,TCTGGCACGTGGACGT,-0.1
25,CGTGTCACGTGAGTCT,0.36

row,Sequence,relative binding free energy [kcal/mol]
1,TGGAGCACGTGGTTTT,0
2,TTTTACACGTGGGAAC,0.12
3,AATTGCACGTGTGTCA,0.08
4,GAAAACACGTGAGGTG,0.4
5,TTAGGCACGTGGTAAA,-0.11
6,TGTGCCACGTGGTGTA,-0.31
7,TTTAACACGTGTTTAA,-0.01
8,TGGTTCACGTGGTCGT,0.23
9,TAGTTCACGTGTAGCT,0.21
10,TGGAGCACGTGGGGCT,-0.21
11,TTTAGCACGTGTCGGT,0
12,GGGGACACGTGGGGCA,-0.04
13,GTTGACACGTGTGTAC,0.14
14,TAGTTCACGTGGGATG,0.19
15,GGGTTCACGTGCCTGG,0.23
16,GTCGACACGTGGGGTG,-0.16
17,TATTTCACGTGGGTGC,0.12
18,TCGGTCACGTGAGTCG,0.48
19,AAAATCACGTGGTGAG,0.1
20,GTCGTCACGTGTCTGT,0.17
21,GTGAGCACGTGTTGGC,-0.28
22,AGAGACACGTGGTTTA,-0.07
23,AGCTGCACGTGTATGG,0.02
24,TGGAACACGTGAAGTT,0.24
25,GTGAGCACGTGACTGG,0.07

row,Sequence,relative binding free energy [kcal/mol]
1,GTTTGCACGTGGGAAA,0.11
2,TGTGTCACGTGTTTAC,0.11
3,CGCGGCACGTGTAGGA,-0.03
4,ATGAGCACGTGTGCTG,-0.1
5,TGAGTCACGTGAGCAG,0.25
6,TCGGACACGTGTCGGT,0.04
7,TATTCCACGTGTTGTA,0.06
8,AGGAACACGTGTGAAG,0.24
9,TTAGTCACGTGTTGGA,0.07
10,ATAACCACGTGGGTGT,-0.24
11,GGTATCACGTGTGTCT,0.24
12,GGTGACACGTGTAGGT,0.18
13,GTTCGCACGTGGGTGG,-0.07
14,TATTGCACGTGTTGTA,-0.01
15,AAGGGCACGTGGAGCT,-0.05
16,GACGGCACGTGGTTGT,-0.18
17,GAGGGCACGTGGTAAG,-0.08
18,TAAGGCACGTGGTGTC,-0.18
19,GGTATCACGTGGGTCT,0.1
20,GTAGCCACGTGGTTAT,-0.09
21,GAGGTCACGTGGTTCG,0.2
